Measured values published in PubChem BioAssay AID485294 (National Center for Advancing Translational Sciences (NCATS), 2010).
The campaign covered roughly 370,000 compounds. About 150 (0.041%) were called active. The inconclusive results got no clear call from the source; some entries with a clear call stand among them for comparison. Calls come from the whole dose curve; as a rule, active = well fitted inhibition curve with a large enough effect; inconclusive = small, poorly fitted or top-dose-only effect; inactive = flat fitted curve, though single readings scatter. Potencies of inconclusive entries are left out as doubtful fits.

target: Beta-lactamase (Escherichia coli (strain K12)) (UniProt P00811); assay: qHTS Inhibitors of AmpC Beta-Lactamase (assay with detergent); settings: AmpC hydrolysis of nitrocefin, absorbance 480 nm, 0.01% Triton; activity change, negative = inhibition: at 114 µM (top of the series); note: nearly all actives have a fitted effect of over 25% in size;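 for activity change, negative = inhibition: 0% = no-compound wells and -100% = no-enzyme wells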
UniProt P00811, sequence (P00811 whole entry, looked up): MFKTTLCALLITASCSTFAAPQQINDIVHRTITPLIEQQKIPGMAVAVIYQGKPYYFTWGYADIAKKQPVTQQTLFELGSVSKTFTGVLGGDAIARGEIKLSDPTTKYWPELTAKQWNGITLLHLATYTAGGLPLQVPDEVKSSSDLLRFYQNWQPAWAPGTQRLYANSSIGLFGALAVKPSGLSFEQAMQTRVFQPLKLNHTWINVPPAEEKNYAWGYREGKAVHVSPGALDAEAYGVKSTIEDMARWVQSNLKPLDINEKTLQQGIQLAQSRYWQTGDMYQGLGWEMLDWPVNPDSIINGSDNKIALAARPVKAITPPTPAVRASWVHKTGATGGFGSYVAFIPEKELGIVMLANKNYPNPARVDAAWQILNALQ
In short: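 20 mM phosphate pH 7.0 + 0.01% (detergent screen) or 0.0001% Triton X-100; 5.3 nM AmpC reagent; cpd preinc 15 min RT; nitrocefin (800 uM stock) to start; A480 q20 s × 4 min; Activity was normalised to no-enzyme and no-compound control wells.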
Potency is the fitted concentration of half-maximal effect; tags give direction and shape of the fitted curve.

SMILES | activity change, negative = inhibition | Potency
CSc1ccccc1NC(=O)c1cc(CC(C)C)on1 | inactive: 4.3% | –
COc1ccc2cc3cc(C(=O)NCC4CCCO4)oc3nc2c1 (stereo not given) | – | inconclusive [inhibitor, partial curve]
CN(CCNC(=O)C1CCCN(c2ncnc3c2nc2n3CCCCC2)C1)Cc1ccccc1 (stereo not given) | – | inconclusive [inhibitor, full curve, poor fit]
Cc1cc(C)c(N=Cc2c(O)c3ccccc3oc2=O)c(C)c1 | – | inconclusive [inhibitor, full curve, poor fit]
CCCOc1ncnc2c1[nH]c1ccccc12 | inactive: 2.13% | –
O=C(O)c1cc(NC(=O)c2ccc([N+](=O)[O-])cc2)cc(NC(=O)c2ccc([N+](=O)[O-])cc2)c1 | – | inconclusive [inhibitor, partial curve]
CCOc1ccccc1NC(=O)CN1CCCCCC1 | inactive: 1.36% | –
CC(C)Oc1ccc(S(=O)(=O)N2CCOCC2)cc1NC(=O)C1CCCC1 | – | inconclusive [inhibitor, full curve, poor fit]
CCOc1ccc2nc(NC(=O)C(NS(=O)(=O)c3cccc4nsnc34)C(C)C)sc2c1 (stereo not given) | – | inconclusive [inhibitor, full curve, poor fit]
CCOC(=O)c1cnc2c(ccc3ccccc32)c1NCCO | inactive: -1.37% | –
CCN1C(=O)/C(=C\c2ccc([N+](=O)[O-])s2)C(=O)NC1=S | – | inconclusive [inhibitor, partial curve]
C=C1C(=O)O[C@H]2[C@H]1[C@@H](O)CC(=C)[C@@H]1CC(=O)[C@@H](C)[C@H]21 | – | inconclusive [inhibitor, single point]
CN(c1ccccc1)S(=O)(=O)c1cccc(C(=O)NCCCN2CCCC2=O)c1 | – | inconclusive [inhibitor, partial curve, poor fit]
CC(=O)Nc1nc(-c2ccc(Cl)cc2)nc(C)c1C(C)=O | – | inconclusive [inhibitor, full curve]
O=C(C(=C1NCCN1)n1cncn1)c1ccccc1 | – | inconclusive [inhibitor, partial curve, poor fit]
Cc1ccc(N(CN2CCCC2=O)C(=O)c2ccc(OC(C)C)cc2)cc1 | – | inconclusive [inhibitor, full curve]
CC(C)N1C(=O)S/C(=C/c2cccnc2)C1=O | inactive: 2.2% | –
CCN(CC)CCOC(=O)c1ccc(NC(=O)CNC(=O)C2CCCCC2)cc1 | – | inconclusive [inhibitor, partial curve, poor fit]
COc1ccc(O)c(C2=Nc3ccccc3N=C(c3ccccc3)C2)c1 | – | inconclusive [inhibitor, partial curve, poor fit]
CCCCC(c1nnnn1CC1CCCO1)N1CCN(c2ccccc2)CC1 (stereo not given) | inactive: 1.34% | –
Cc1c(CN2CCCCC2)c(O)n(CCCO)c(=O)c1C#N | – | inconclusive [inhibitor, full curve, poor fit]
CC1CS(=O)(=O)CCN1N=Cc1ccc([N+](=O)[O-])o1 (stereo not given) | – | inconclusive [inhibitor, full curve]
Cc1cc(S(=O)(=O)N(C)CCc2ccccc2)ccc1-n1cnnn1 | – | inconclusive [inhibitor, full curve, poor fit]

SMILES | activity change, negative = inhibition | Potency
CCOc1ccc(NC(=O)C(C)Sc2nnc(C)n2C)cc1 (stereo not given) | – | inconclusive [inhibitor, full curve, poor fit]
CCc1ccc(CNC(=O)Cn2nc(-c3ccc(C)cc3)ccc2=O)cc1 | – | inactive
CC(C)(C)C(=O)/C=C/Nc1ccccc1O | inactive: 0.921% | –
CCn1c(SCc2ccc(C#N)cc2)nnc1-c1ccc(S(=O)(=O)N2CCCCC2)cc1 | inactive: 10.5% | –
COc1ccc2oc(C(=O)NNC(=O)c3ccc(F)cc3)c(C)c2c1 | – | inconclusive [inhibitor, partial curve]
CC(=O)c1ccc(OCC(O)CN2CCN(c3ccccn3)CC2)cc1 (stereo not given) | – | inconclusive [inhibitor, full curve, poor fit]
Cc1ccn(C)c(=N)c1 | inactive: -12.2% | –
COc1ccc(S(=O)(=O)Nc2ccccc2C(=O)NC2CC2)cc1NC(C)=O | inactive: 1.25% | –
CCOc1ccc(N(CC(=O)Nc2cccc(Cl)c2)S(=O)(=O)c2c(C)noc2C)cc1 | – | inconclusive [inhibitor, full curve]
Cc1ccc(N2CCN(C(=O)c3cc4cc5ccc(C)cc5nc4s3)CC2C)cc1 (stereo not given) | inactive: 10.6% | –
CCC(=O)N1CCc2cc(Br)cc(S(=O)(=O)N3CCCCCC3)c21 | inactive: -13% | –
O=C(CCNS(=O)(=O)c1ccc(OC(F)(F)F)cc1)N1CCCC1 | – | inconclusive [inhibitor, full curve, poor fit]
C/C=C/CSc1nc2c(c(=O)[nH]c(=O)n2C)n1C(C)C | – | inconclusive [inhibitor, full curve, poor fit]
Cc1cccn2cc(CCNC(=O)c3ccco3)nc12 | – | inconclusive [inhibitor, full curve, poor fit]
Cc1ccnc(NC(=O)C2CCN(S(=O)(=O)c3cccc4nonc34)CC2)c1 | – | inconclusive [inhibitor, single point]
CN1C(=O)/C(=C\c2ccco2)N=C1c1ccc(Cl)cc1Cl | inactive: -3.57% | –
CC12CCC(=O)N1C(C(=O)NNC(=O)c1ccc(Br)cc1)CS2 (stereo not given) | – | inconclusive [inhibitor, partial curve]
COc1cc(CN2CCNCC2)cc(OC)c1OC | – | inconclusive [inhibitor, full curve, poor fit]
Cc1ccc(C2N(C)C(=O)c3ccccc3N2C)cc1 (stereo not given) | – | inconclusive [inhibitor, single point]
CC(=O)Nc1ccc(NC(=O)Nc2ccc(C)c(C)c2)cc1 | inactive: 6.45% | –
O=C(c1ccccc1)c1c2c(cc3sc4ccccc4[n+]13)-c1cccc3cccc-2c13 | – | inconclusive [inhibitor, full curve, poor fit]
Cc1nc(-n2ncc(C#N)c2N)c2c3c(sc2n1)CCC3 | – | inconclusive [inhibitor, partial curve, poor fit]
